Drawing on publication PMC6212790, this text covers binding signal for 219 sequences.

The other results are listed elsewhere or left out. At the low end of the ranking the order means little.

The test concerns the target T1, GST-Rok-C97-191 (UniProt O34857).
T1 sequence: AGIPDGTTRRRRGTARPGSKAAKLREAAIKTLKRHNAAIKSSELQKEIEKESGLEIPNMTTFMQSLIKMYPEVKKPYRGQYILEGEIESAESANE
Briefly: protein binding microarray.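 Note: rank score from −0.5 (least bound) to 0.5 (best bound).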 To be noted: Rok is a gene silencer of Bacillus subtilis; high values mean tight binding; most listed sequences are background and not binding sites; double strand, one strand shown.
In the case of AAAGTATG, the binding signal amounted to 0.249 E-score. AAGTTATA registered a binding signal of 0.24 E-score.

The sequence AGCTTGCA registered a binding signal of 0.00305 E-score.

TAGGCTGA returned a binding signal of 0.0315 E-score. On to CGCATTGA, for which the binding signal is -0.107 E-score. With GGCTAGGA, the binding signal was -0.0824 E-score.

Regarding TCAAACAA, the binding signal worked out at 0.0983 E-score. Take AGCCGGCT: the binding signal was -0.277 E-score.

Consider GACTGCAA, for which the binding signal was -0.111 E-score. Sequence ATTATGGA had a binding signal of 0.0104 E-score. To ACTTAGTG belongs 0.228 E-score.

CAGGGAAA: the binding signal is -0.128 E-score.

Consider CATACCGC, for which the binding signal was -0.147 E-score. Regarding ATCAGGGA, the binding signal was -0.142 E-score. Sequence CTATAAAC had a binding signal of 0.291 E-score. On to GTCAGGGA, for which the binding signal is -0.345 E-score. To ATAGTCTC belongs 0.128 E-score; to AGTACCTC, 0.0552 E-score.

For the sequence AGTAGGAC, the binding signal is -0.0484 E-score. As for TCAGGTAA, the binding signal is 0.00776 E-score. The same measure for AATCAGCG: -0.104 E-score; for ACTTTTCC: -0.0516 E-score. The same measure for AGCGAGAG: -0.195 E-score.

With CCACCGGG, the binding signal was -0.318 E-score. To ACTATAGA belongs 0.241 E-score; to CTTCGAAC, -0.152 E-score. The same measure for AGCTTGAA: 0.0643 E-score.

In turn, GAGGTATC registered a binding signal of 0.108 E-score. Turning to CAGCCGCC, the binding signal is -0.398 E-score. The same measure for CACCTCCC: -0.195 E-score. AAAATCGA had a binding signal of 0.156 E-score. Take AGCTTGGC: the binding signal is -0.199 E-score. As for ATAATTAT, the binding signal amounted to 0.137 E-score. On to CGATAGCA, for which the binding signal came out at 0.043 E-score. The same measure for AGACTCAG: -0.277 E-score; for AAACAGTG: -0.00365 E-score. The same measure for GGGAATAA: 0.0439 E-score; for ATTGTACG: 0.142 E-score; for ATCAGTGA: -0.127 E-score. The same measure for AACAGATG: -0.05 E-score. Consider CGGGTGAA, for which the binding signal was -0.0151 E-score.

ACCGAGAC: the binding signal is -0.149 E-score. The sequence GTTCTGTA had a binding signal of 0.203 E-score. Sequence GCGGTATA came in with a binding signal of 0.295 E-score.

Consider AGGCCGTA, for which the binding signal is -0.098 E-score.

In the case of CAGGGCAC, the binding signal was -0.215 E-score. Regarding AAGGAGAG, the binding signal was -0.144 E-score. ATCATACC registered a binding signal of 0.205 E-score. Sequence ACATCGTA gave a binding signal of 0.0718 E-score. As to AAAACGAC, the binding signal was -0.0977 E-score. Take TAGCCTGA: the binding signal is -0.0404 E-score. With GAAAATTA, the binding signal is 0.254 E-score. The same measure for GAACAAAA: 0.0133 E-score. The same measure for GTGCGTTA: -0.0744 E-score. The same measure for AAAGTAAT: 0.144 E-score; for ATTCGCCC: -0.192 E-score; for GAGATAGA: 0.15 E-score.

CGGACACA gave a binding signal of 0.0621 E-score. For CGGGGACG, the binding signal was -0.179 E-score. To CCTAAGAC belongs -0.0994 E-score. To AATTGGAC belongs 0.107 E-score; to CCCAAAGA, -0.215 E-score.

TAAGAAAA: the binding signal was 0.151 E-score. The same measure for GAACCCGC: -0.154 E-score. The same measure for CAATTCCA: 0.12 E-score; for CAGCCACC: -0.211 E-score.

AGTAGCGG: the binding signal amounted to 0.238 E-score. The same measure for ACGAAGAA: -0.0377 E-score; for ATATGGGC: -0.15 E-score; for GACACCGC: -0.363 E-score. As for GGAAGCTA, the binding signal was found to be 0.242 E-score. In the case of GATCGAGA, the binding signal was -0.044 E-score. The same measure for ACGCTAGT: 0.14 E-score; for ACACCGTA: 0.0572 E-score; for CAGTAGGG: 0.0282 E-score. The same measure for ATAATTCC: 0.215 E-score; for CTTGCTCA: 0.0296 E-score.

Consider AATTATTA, for which the binding signal was determined as 0.3 E-score. To GAGAGCTA belongs 0.101 E-score. The same measure for GCATTCAC: 0.0171 E-score; for GAGCGAAC: -0.207 E-score; for CCAAGCGG: -0.177 E-score.

CAAGTTCC: the binding signal is -0.056 E-score. To AAGCATGA belongs -0.0477 E-score; to TATGGCGA, -0.137 E-score; to AGATAATG, 0.273 E-score. With GTACGTGA, the binding signal was found to be 0.154 E-score. To CGTTTGAG belongs 0.0202 E-score; to ACGAGTTG, 0.0372 E-score.

Sequence CATGTATC returned a binding signal of 0.232 E-score.

Sequence GTAGTCAA showed a binding signal of 0.205 E-score.

With CCCTAAGC, the binding signal is -0.217 E-score.

CGCGTTAG: the binding signal is -0.0711 E-score. To GCACATTA belongs 0.133 E-score; to AACCGTCC, -0.146 E-score. To AGAGTGTG belongs -0.227 E-score; to TCCACACA, -0.0316 E-score; to AGGCCTGC, -0.304 E-score.

With CGTTGCAG, the binding signal was -0.113 E-score. The same measure for ACGCCTAC: 0.1 E-score. To ATACGCAG belongs 0.0903 E-score.

ACTGGCGG: the binding signal was -0.16 E-score. The same measure for CGAATGGC: -0.0846 E-score. Turning to AGCCATCA, the binding signal is -0.0573 E-score. With AGGTCTTC, the binding signal was -0.124 E-score. The same measure for ACTCTATC: 0.15 E-score; for AGAATATA: 0.231 E-score; for GCCAGGAA: -0.127 E-score. The same measure for AACTTGCA: 0.161 E-score. Turning to AAAGACAT, the binding signal is -0.151 E-score. With ACCCCCGT, the binding signal was -0.19 E-score. The same measure for GCACTTAA: 0.0199 E-score; for AACTCACC: -0.0323 E-score. To GGCGGAGA belongs -0.286 E-score; to ATTGGTGA, -0.176 E-score; to ATAATCCA, 0.137 E-score. The same measure for CAAGGCTG: -0.146 E-score; for CGGAACAA: -0.019 E-score; for GCTGGGAC: -0.266 E-score. The sequence AAACGAAG showed a binding signal of 0.00465 E-score.

With CTTTGGGA, the binding signal was -0.248 E-score. The same measure for TCCGTGCA: -0.0308 E-score; for CATGGTTC: 0.0199 E-score. As to GCCATCGA, the binding signal was -0.12 E-score.

CTATGGAG came in with a binding signal of 0.0321 E-score. The same measure for ATCGCAAC: 0.0155 E-score; for ATGCTCGG: 0.0326 E-score; for CGGGCATC: -0.151 E-score. To AACAAACC belongs -0.151 E-score; to GATCCGCA, -0.179 E-score; to GATCAGGA, -0.0408 E-score. The same measure for CGAGCTCC: -0.209 E-score; for CTTAAAAA: -0.0124 E-score. Consider TGGCGACA, for which the binding signal was -0.211 E-score. ACCAACCC: the binding signal is -0.0889 E-score.

Sequence AGGAGCTC registered a binding signal of 0.0384 E-score.

In the case of CTGACCTA, the binding signal is 0.0445 E-score. CAACCCGC: the binding signal is -0.137 E-score. Regarding TGAAAACA, the binding signal is -0.0599 E-score. On to CCACCGAC, for which the binding signal is -0.0637 E-score. To CCACCTCC belongs -0.199 E-score; to GGTCGACA, -0.101 E-score; to GAAAAGTC, -0.0348 E-score. The same measure for CCCAACAC: -0.159 E-score. To CGATCACC belongs -0.0971 E-score. Sequence AGTATACT showed a binding signal of 0.321 E-score. CCTTGGAA: the binding signal is -0.0362 E-score.

Turning to GATTCTCA, the binding signal is 0.131 E-score. The same measure for AGGCAGTC: -0.171 E-score; for TCTCGAAA: -0.00488 E-score.

Sequence GATATGAA had a binding signal of 0.0589 E-score.

On to AGCCCCTG, for which the binding signal is -0.213 E-score. To CGACGATA belongs 0.153 E-score.

For the sequence TAGACGGA, the binding signal is -0.313 E-score.

Take CTGGGCGC: the binding signal is -0.28 E-score. Turning to AGGAGAAT, the binding signal worked out at 0.162 E-score. To AAAGCAGG belongs -0.211 E-score; to ACCTCTTC, -0.147 E-score.

With CCTAATCG, the binding signal was -0.143 E-score.

Turning to ATTCTGAG, the binding signal worked out at 0.126 E-score. The same measure for GCTGGCTA: -0.0491 E-score; for GGCATCCC: -0.237 E-score.

For the sequence GACGTCTC, the binding signal is -0.169 E-score.

Regarding ATCATCAA, the binding signal was -0.0196 E-score. For the sequence ATCGCCTA, the binding signal is -0.0143 E-score. In the case of AACAAATG, the binding signal was 0.11 E-score. Sequence ACCGGTAC gave a binding signal of 0.156 E-score. Consider GGACGTCC, for which the binding signal is -0.0863 E-score.

In turn, AAATCTGT gave a binding signal of 0.141 E-score. To GAAGTCAC belongs 0.043 E-score; to GGGGGGCA, -0.354 E-score; to CGTATTGA, 0.179 E-score. Regarding ACTTGAAA, the binding signal worked out at 0.0997 E-score.

In the case of ACAAGGAC, the binding signal was -0.136 E-score.

As to CCTCAGAA, the binding signal was -0.071 E-score. To AAGCGTGG belongs -0.102 E-score. To GAGGCTCC belongs -0.255 E-score; to TAATATTA, 0.287 E-score. ACTCACCA returned a binding signal of 0.157 E-score. Regarding TGATTCAA, the binding signal was -0.139 E-score. To ATAGCGTG belongs 0.00421 E-score; to CTAGGGCA, -0.142 E-score. To TCCCACGA belongs -0.189 E-score. With CCTCACCA, the binding signal was -0.151 E-score. To TACAGAAA belongs 0.14 E-score; to AGTGACTA, 0.181 E-score; to CTGGCAAC, -0.193 E-score. To GTCGCTAA belongs 0.157 E-score; to ATTAATGA, 0.16 E-score. For GTTTCTGA, the binding signal turned out to be 0.0641 E-score.

TCACTCCA: the binding signal was -0.121 E-score. As for AATGCGTC, the binding signal was determined as 0.0333 E-score. Consider GCACTACA, for which the binding signal was -0.0501 E-score. For ACCCCCGA, the binding signal is -0.369 E-score.

With GATGCACA, the binding signal was -0.0663 E-score.

AAAAAGTG: the binding signal was -0.0823 E-score. The same measure for AACCCACA: 0.0239 E-score; for AGTTTACG: 0.227 E-score. The same measure for GGCCGGAA: -0.216 E-score; for AATCATGG: 0.0485 E-score. With ACGTAGTG, the binding signal came to 0.00856 E-score. For the sequence CTTCCTAA, the binding signal was 0.04 E-score. Take GACAGCCA: the binding signal was -0.00173 E-score. The same measure for AGCAGTCA: 0.0635 E-score; for TGGTGGAA: -0.0962 E-score; for CAAGTGTA: 0.217 E-score.

AACTTAAC yielded a binding signal of 0.0579 E-score.

As to AGTCAACT, the binding signal was 0.173 E-score. To ATGAAGGC belongs -0.0722 E-score; to AACTGTCT, -0.0968 E-score. The same measure for AAGAGTAC: 0.0437 E-score. As to CCCGCTGA, the binding signal was -0.08 E-score. For CTCAAATC, the binding signal was found to be 0.118 E-score. In the case of CCCCAACC, the binding signal was -0.334 E-score. To CCAATGAA belongs -0.197 E-score; to AGGTCAGC, -0.22 E-score. With AAGTGGCT, the binding signal was -0.0987 E-score.

Regarding GGTGCAAC, the binding signal is -0.0642 E-score. As to ACTCTTTG, the binding signal was 0.0114 E-score.
